These results are taken from paper PMC7819943, “Rice protein-binding microarrays: a tool to detect cis-acting elements near promoter regions in rice”.

Some of the results follow.

For the experiment, the target named is T1, OsWOX13 (Oryza sativa, UniProt Q5QMM3 1-267).
T1 sequence: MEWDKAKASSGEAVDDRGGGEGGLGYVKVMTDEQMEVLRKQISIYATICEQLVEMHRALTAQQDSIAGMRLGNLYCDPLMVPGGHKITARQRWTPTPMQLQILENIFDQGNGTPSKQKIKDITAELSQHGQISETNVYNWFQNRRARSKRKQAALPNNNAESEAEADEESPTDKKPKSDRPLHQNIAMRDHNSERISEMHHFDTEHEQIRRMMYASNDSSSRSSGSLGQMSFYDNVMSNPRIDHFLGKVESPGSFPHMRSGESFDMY
As to the kind of experiment: protein-binding microarray (RPBM); PBS, 2% BSA, 51.3 ng/ul salmon testes DNA, 50 uM zinc acetate, 200 nM TF, 25 C, 1 h; high values mean tight binding. Conditions: protein: recombinant; tags: N-terminal polyhistidine and DsRed monomer fusion (pET32a); label: CyDye5-dUTP incorporated in the synthesized complementary strand; 3' TTTTT single-stranded linker to array surface; dsDNA, one strand shown. In a few lines: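 An Axon 4000B scanner gave the binding signal as per-feature fluorescence intensity in arbitrary units. This followed washing of a custom Agilent array that had been incubated for 1 h at 25 °C with 200 nM protein in PBS, 2% BSA, salmon testes DNA and 50 µM zinc acetate. The proteins were transcription factors fused at the N-terminus to polyhistidine and DsRed, expressed in E. coli BL21-CodonPlus and purified on Ni–NTA.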
With “CCTGATGCGTGATTTACTCATGGTGTAAATCACACGATCTCGGAGTCACCTAGTGCAG”, the binding signal was 24600 fluorescence intensity (a.u.).

Consider “AAGTTGATTGGCACCAATTTTCGGAGATACGGAAGACATTCGGAGTCACCTAGTGCAG”, for which the binding signal was 49100 fluorescence intensity (a.u.).

With “TTAAAACTCAATCAATCATATGTTAATACCATCTCGTTTTCGGAGTCACCTAGTGCAG”, the binding signal is 29200 fluorescence intensity (a.u.).

Turning to “TGTTGATTTTACAGGTGTAGATTTACATTTGATTGTACGCCGGAGTCACCTAGTGCAG”, the binding signal is 37200 fluorescence intensity (a.u.).

As to “CTAATTAACCGGTAATGTCGATCGAAACGATGACACATGCCGGAGTCACCTAGTGCAG”, the binding signal was 19500 fluorescence intensity (a.u.).

“ATAAATTTTATAAACTTGACTGCCTCTGGTTGTATATGCACGGAGTCACCTAGTGCAG”: the binding signal is 23900 fluorescence intensity (a.u.).

Regarding “TGAAATGACCGGACTCCTAATTGCAGATCATGATTTTCTGCGGAGTCACCTAGTGCAG”, the binding signal is 8010 fluorescence intensity (a.u.).

“TTTCCAAATTATACATTGTTCTTCTGGAACAATCTGTGATCGGAGTCACCTAGTGCAG”: the binding signal was 3210 fluorescence intensity (a.u.).

With “ATGTAATCATTAATAAATTGTGTTGTATATCTCATTTAAACGGAGTCACCTAGTGCAG”, the binding signal was 12600 fluorescence intensity (a.u.).

As to “GAGGGAGGCGATTCAATCAAGAGCAAGAGTTGAGGGAGGTCGGAGTCACCTAGTGCAG”, the binding signal is 4150 fluorescence intensity (a.u.).

As for “AGCCAAGAACAATCAATTTCAATAACATAAGGTGAACTATCGGAGTCACCTAGTGCAG”, the binding signal is 4450 fluorescence intensity (a.u.).

With “CCAATTTAATTTCTATGGCTTGATTTCCTCTTTGGCACAACGGAGTCACCTAGTGCAG”, the binding signal is 16400 fluorescence intensity (a.u.).

For the sequence “CTTGATGGATGTTGTGGATGGAGGAGAGTGTTTTGATGCTCGGAGTCACCTAGTGCAG”, the binding signal was 24800 fluorescence intensity (a.u.).

For “CCTAATTCGCGGAGATTGCAAGCTATTCGCACTAACATAGCGGAGTCACCTAGTGCAG”, the binding signal was 10500 fluorescence intensity (a.u.).

“AGTTACTTTTCAGTATTGATTATTTAAGTCAGTACTAAAGCGGAGTCACCTAGTGCAG”: the binding signal is 3680 fluorescence intensity (a.u.).

As to “ATAGTTAACAAAATTTGACAGCAAACTAAATGTAACCATTCGGAGTCACCTAGTGCAG”, the binding signal is 27800 fluorescence intensity (a.u.).

For the sequence “TTTATGATTAGCATATGTGATGCTAAAGTAACATGTGCTACGGAGTCACCTAGTGCAG”, the binding signal is 39400 fluorescence intensity (a.u.).

Take “ACAAACAGAATTCAATAATTATGTAATCCTTATCTTGGGTCGGAGTCACCTAGTGCAG”: the binding signal was 15300 fluorescence intensity (a.u.).

In the case of “AATGTGATTATACATGCGAGTACATTAATAATCCTATCATCGGAGTCACCTAGTGCAG”, the binding signal was 11300 fluorescence intensity (a.u.).

For “CATGATGGAAAGTCCAGCCCATATTCAACCATTCCGGCCGCGGAGTCACCTAGTGCAG”, the binding signal was 6730 fluorescence intensity (a.u.).

On to “TGGGCGGTTAATTTGACTTCGATGTTCAGTACCTTGTGGGCGGAGTCACCTAGTGCAG”, for which the binding signal was 4180 fluorescence intensity (a.u.).

Consider “CAGTAATTAGTTAAATAAAGTTCCTTTGTAACTAGGCCAACGGAGTCACCTAGTGCAG”, for which the binding signal is 35700 fluorescence intensity (a.u.).

Take “AGTAGATAGATACCTCATCCCCATGTAAACAACCGATGCCCGGAGTCACCTAGTGCAG”: the binding signal is 3150 fluorescence intensity (a.u.).

With “GCACATAATTAAGCGCATTAACACCCTAGTAGAATTGTTTCGGAGTCACCTAGTGCAG”, the binding signal was 19600 fluorescence intensity (a.u.).

In the case of “TAGAAAATTGGTAAGATTAGTCGACATGTGATCCTCCAGCCGGAGTCACCTAGTGCAG”, the binding signal is 17000 fluorescence intensity (a.u.).

Turning to “AGAAAACAATTAAATTTTAGTCGTGCCTGACAAGCTAACGCGGAGTCACCTAGTGCAG”, the binding signal was 3810 fluorescence intensity (a.u.).

Turning to “TGAGGTGACGAGATTGGAGGCGAAGGCTAGGAGAGGCTTGCGGAGTCACCTAGTGCAG”, the binding signal is 3430 fluorescence intensity (a.u.).

On to “TTATCAGCCAAAATTTAAATTTTCAACCTTAAATTTGAGTCGGAGTCACCTAGTGCAG”, for which the binding signal is 5940 fluorescence intensity (a.u.).

For the sequence “ACCAGTAAGGTGGTGATTGGGCTCACCACCTTTTACGCCCCGGAGTCACCTAGTGCAG”, the binding signal was 4320 fluorescence intensity (a.u.).

As to “GTTTTGTGTTTCTCCTCTAGTAATTGAAAAGGTTGCTTATCGGAGTCACCTAGTGCAG”, the binding signal was 3960 fluorescence intensity (a.u.).

With “AATAATTACTTAAACTTTTAAATAAGACGAATGGTCAAACCGGAGTCACCTAGTGCAG”, the binding signal is 17900 fluorescence intensity (a.u.).

For the sequence “CCACTAATTTCTTCTCTCTTTCTCTCTCTCTCCGCGCCCTCGGAGTCACCTAGTGCAG”, the binding signal was 28100 fluorescence intensity (a.u.).

On to “CTTGCTCTAATTAATTTCCTACTACAACAGTTTAATTAATCGGAGTCACCTAGTGCAG”, for which the binding signal is 4650 fluorescence intensity (a.u.).

“TTTGACATTTCGATTGGAAATTTGAAGCTTAAACAATAGACGGAGTCACCTAGTGCAG”: the binding signal is 6320 fluorescence intensity (a.u.).

As for “AGTGATTCTATGCTAAATGGCACTCACCTTTCTAACGGTCCGGAGTCACCTAGTGCAG”, the binding signal was 3210 fluorescence intensity (a.u.).

For the sequence “CTGATTTGTATTGACATGAGGTTCTTTTGGCGTTGTGAATCGGAGTCACCTAGTGCAG”, the binding signal was 33300 fluorescence intensity (a.u.).

Regarding “TTTGCTTCCTTAACGTGTGATGATTGCTGGCACAAGCCACCGGAGTCACCTAGTGCAG”, the binding signal is 6120 fluorescence intensity (a.u.).

As to “TTTAATGAAATTTTATCTGGCCCCATTTTATATTGGAATTCGGAGTCACCTAGTGCAG”, the binding signal is 12100 ± 990 fluorescence intensity (a.u.).

On to “CAGGATAATTTGGTCGGTTAATACCACTACATAGAGGCATCGGAGTCACCTAGTGCAG”, for which the binding signal was 11700 fluorescence intensity (a.u.).

Consider “AATCAATATATCAATTAAAATTTTCGGACTTTATCAAATGCGGAGTCACCTAGTGCAG”, for which the binding signal was 20400 fluorescence intensity (a.u.).

Regarding “AAACAGAACATAATTGTGATACACTTTTCGCTGATGGGTACGGAGTCACCTAGTGCAG”, the binding signal is 4900 fluorescence intensity (a.u.).

“GTCCAACAGAAATGACTGAAATCATCAAGCACCACTAAGTCGGAGTCACCTAGTGCAG”: the binding signal is 4050 fluorescence intensity (a.u.).
